From patent US20260234258A1 (REPERTOIRE IMMUNE MEDICINES, published 2026)

Legend:
[1] = molecular target: T1, mouse CD8 (on CD8 T cells of mouse splenocytes) (mouse, UniProt P01731 28-247); test: flow cytometry on mouse splenocytes, CD8 T cells; bound molecule detected with anti-human kappa; median fluorescence intensity
T1 construct: whole, on cells; also called mCD8
Description: Anti-mouse CD8-human IL2 molecules were evaluated for their ability to specifically bind and load IL2 on CD8 T cells. Briefly, 1×10⁵ mouse splenocytes were incubated with indicated CD8-IL2 (human FC receptor) molecules from one of the concentrations ranging from 0.05 pM to 500 nM. Anti-mouse CD8 antibody was used as control. Following one hour incubation with molecules, splenocytes were washed twice with RPMI complete medium and once with PBS. The washed splenocytes were stained with anti-TL2 (MQ1-17H12), anti-human kappa (MHK-49) and lineage surface makers CD4(RM4-4), NK1.1(PK136) and CD19(6D5) for 20 minutes, after which the cells were washed and analyzed using flow cytometer. Mean fluorescence intensity data was analyzed using four parameter nonlinear regression method to calculated binding affinity in GraphPad prism.

[2] = molecular target: T2, human CD8 (on CD8 T cells of human PBMC) (human, UniProt P01732 22-235); test: cell-based or functional assay
[3] = molecular target: T2, human CD8 (on CD8 T cells of human PBMC); test: cell-based or functional assay; remark: listed apart in the source
T2 sequence (P01732 22-235 limits assumed): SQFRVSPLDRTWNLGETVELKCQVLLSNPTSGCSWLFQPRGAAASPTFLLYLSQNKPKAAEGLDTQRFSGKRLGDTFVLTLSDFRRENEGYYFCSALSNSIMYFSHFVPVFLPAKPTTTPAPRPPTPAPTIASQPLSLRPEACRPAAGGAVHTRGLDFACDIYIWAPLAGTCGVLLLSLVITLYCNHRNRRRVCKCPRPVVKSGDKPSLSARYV

[4] = molecular target: T2, human CD8 (on CD8 T cells of human PBMC); test: flow cytometry on human PBMC, gated cell types; IL2 loading detected with anti-IL2; MFI
Description: (§1) Anti-human CD8-human IL2 molecules were evaluated for their ability to specifically bind and load IL2 on CD8 T cells. Briefly, […] human PBMC were co-cultured with indicated CD8-IL2 (human FC receptor) molecules from one of the concentrations ranging from 0.05 pM to 0.4 nM. Following one hour incubation with molecules, PBMC were washed twice with RPMI complete medium and washed once with PBS. The washed cells were stained with anti-IL2 (MQ1-17H12), anti-human kappa (MHK-49) and lineage surface markers CD3(UCHT1), CD4(SK3) and NK(HCD56) for 20 minutes, after which the cells were washed and analyzed using a flow cytometer. The binding affinity was quantified and represented as mean fluorescence intensity (MFI).

[5] = molecular target: T2, human CD8 (on CD8 T cells of human PBMC); test: flow cytometry on human PBMC, CD8 T cells; bound molecule detected with anti-human kappa; MFI
Description: as §1

T1 sequence (P01731 28-247): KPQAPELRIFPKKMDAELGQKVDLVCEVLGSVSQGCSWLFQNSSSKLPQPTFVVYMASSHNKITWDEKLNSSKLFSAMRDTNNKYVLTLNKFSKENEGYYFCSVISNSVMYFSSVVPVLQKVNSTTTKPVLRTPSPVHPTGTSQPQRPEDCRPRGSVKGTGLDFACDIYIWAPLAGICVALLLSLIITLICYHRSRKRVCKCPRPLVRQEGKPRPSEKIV

| EC50 (read off the curve) [1] [nM] | EC50 pSTAT5 Activation, CD8+ T cells [2] [pM] | EC50 of Proliferation (percentage Ki67), CD8+ T cells [3] [nM] | EC50 (read off the curve) [4] [nM] | EC50 (read off the curve) [5] [nM] | Binder |
| --- | --- | --- | --- | --- | --- |
| ~0.05 | – | – | – | – | mCD8 IgG IL2 (LC) (YTS105) (antibody) heavy: EVQLKESGPGLVQPSQTLSLTCTVSGFSLTSNSVHWVRQPPGKGLEWMGGIWGDGDTDYNSALKSRLSISRDTSKNQVFLKMNSLQTDDTAIYFCTPLIGSWYFDFWGPGTMVTASSASTKGPSVFPLAPSSKSTSGGTAALGCLVKDYFPEPVTVSWNSGALTSGVHTFPAVLQSSGLYSLSSVVTVPSSSLGTQTYICNVNHKPSNTKVDKKV[human IgG1 Fc with L234A L235A N297A P329G (EU numbers) omitted] light: DIVMTQSPSSLAVSAGERVTLNCKASQNVRNNIAWYQQKPGQSPKLLIYYASYRYTGVPDRFTGDGFGTDFTLAINSVQADDAAFYYCQRIYNSPYTFGAGTKLELIRTVAAPSVFIFPPSDEQLKSGTASVVCLLNNFYPREAKVQWKVDNALQSGNSQESVTEQDSKDSTYSLSSTLTLSKADYEKHKVYACEVTHQGLSSPVTKSFNRGECGGGGSGGGGSGGGGS[about 150 residues omitted] |
| – | 0.246 | 0.0551 | ~0.03 | ~0.03 | hCD8 IgG IL 2 (LC) (VH6/VK3) (antibody, Humanized 02A01 (VH6/VK3) anti-human CD8 IgG with human IL-2 on the C-terminus of each light chain) heavy: EVQLVQSGAEVKKPGATVKISCKASGYTFTDFTMHWVQQAPGKGLEWIGLVNPNNGGNIYAEKFQGRVTLTVDTSTSTAYMELSSLRSEDTAVYYCGRVPLYTSHGMDYWGQGTLVTVSSASTKGPSVFPLAPSSKSTSGGTAALGCLVKDYFPEPVTVSWNSGALTSGVHTFPAVLQSSGLYSLSSVVTVPSSSLGTQTYICNVNHKPSNTKVDKKV[human IgG1 Fc with L234A L235A N297A P329G (EU numbers) omitted] light: EIVLTQSPATLSLSPGERATISCRASESVDSYDINSMHWYQQKPGQAPRLLIYRASHLQSGIPARFSGSGSRTDFTLTISSLEPEDFATYYCQQSNEDPLTFGQGTKLEIKRTVAAPSVFIFPPSDEQLKSGTASVVCLLNNFYPREAKVQWKVDNALQSGNSQESVTEQDSKDSTYSLSSTLTLSKADYEKHKVYACEVTHQGLSSPVTKSFNRGECGGGGSGGGGSGGGGSGGGGS[about 150 residues omitted] |
